Consider 21 compounds from the supplement of paper PMC4604168 (melanoma cell lines).

The other results are listed elsewhere or left out. Single values are uncertain, as repeats are few or missing.
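Note: cells treated in 1,536-well plates, then fixed and DAPI-stained, with nuclei counted from automated high-throughput microscope images.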

For this assay, the system named is COLO829. As to the kind of experiment: cell count relative to DMSO control; melanoma cells; higher = more viable cells. To be noted: library dose: standard library concentration; 72 h; first compound 2 µM.
As for `C[C@@H](N)c1ccc(C(=O)Nc2ccnc3[nH]ccc23)cc1` + CN(NC(=O)CC(=O)NN(C)C(=S)c1ccccc1)C(=S)c1ccccc1 [STA4783] (partner dose 0.03 µM), the cell count turned out to be 52.1%.

On to `CCCCCCCCCCCCCCCCCCOP(=O)([O-])OC1CC[N+](C)(C)CC1` [Perifosine] + COc1cc2ncnc(Nc3ccc(Oc4ccccc4)cc3)c2cc1OC [SrcI1] (partner dose 10 µM), for which the cell count was 114%. Regarding `CCCCCCCCCCCCCCCCCCOP(=O)([O-])OC1CC[N+](C)(C)CC1` [Perifosine] + Cc1cc(Nc2cc(N3CCN(C)CC3)nc(/C=C/c3ccccc3)n2)n[nH]1 [ENMD2076] (partner dose 0.2 µM), the cell count stood at 75%. `C[C@@H](N)c1ccc(C(=O)Nc2ccnc3[nH]ccc23)cc1` + O=c1cc(-c2cccc3c2Sc2ccccc2S3)oc(N2CCOCC2)c1 [KU55933] (partner dose 5 µM) yielded a cell count of 85.2%. The same measure for `Cn1sc(=O)n(Cc2ccccc2)c1=O` + O=c1cc(-c2cccc3c2Sc2ccccc2S3)oc(N2CCOCC2)c1 [KU55933] (partner dose 5 µM): 105%; for `CCCCCCCCCCCCCCCCCCOP(=O)([O-])OC1CC[N+](C)(C)CC1` [Perifosine] + O=C1NC(=O)/C(=C/c2ccc(-c3ccc(F)cc3O)o2)S1 [AS252424] (partner dose 5 µM): 99.6%. Compound `Cn1sc(=O)n(Cc2ccccc2)c1=O` + Oc1cc(-c2nc(-c3ccccc3)[nH]c2-c2ccncc2)ccc1Cl [L779450] (partner dose 1 µM) gave a cell count of 83.4%.

As to `Cn1sc(=O)n(Cc2ccccc2)c1=O` + Oc1nc(-c2ccc(C(F)(F)F)cc2)nc2c1CSCC2 [XAV939] (partner dose 10 µM), the cell count stood at 98.9%. With `Cn1sc(=O)n(Cc2ccccc2)c1=O` + COc1ccc(C2=N[C@@H](c3ccc(Cl)cc3)[C@@H](c3ccc(Cl)cc3)N2C(=O)N2CCNC(=O)C2)c(OC(C)C)c1 [Nutlin-3] (partner dose 0.5 µM) the figure was 79.2%; with `Cn1sc(=O)n(Cc2ccccc2)c1=O` + CCN(CC)CCCCNc1ncc2cc(-c3cc(OC)cc(OC)c3)c(NC(=O)NC(C)(C)C)nc2n1 [PD173074] (partner dose 0.5 µM), 84.6%. With `C[C@@H](N)c1ccc(C(=O)Nc2ccnc3[nH]ccc23)cc1` + NC(=O)c1ccc(N(C(N)=O)c2c(F)cccc2F)nc1-c1ccc(F)cc1F [VX702] (partner dose 2 µM) the figure was 92%. Regarding `CCCCCCCCCCCCCCCCCCOP(=O)([O-])OC1CC[N+](C)(C)CC1` [Perifosine] + Oc1cc(-c2nc(-c3ccccc3)[nH]c2-c2ccncc2)ccc1Cl [L779450] (partner dose 1 µM), the cell count came out at 76%. `Cn1sc(=O)n(Cc2ccccc2)c1=O` + COc1ccc2c(c1)CCC1C2CCC2(C)C(NCCCCCCN3C(=O)C=CC3=O)CCC12 [U73122] (partner dose 2 µM) showed a cell count of 78.9%. `CCCCCCCCCCCCCCCCCCOP(=O)([O-])OC1CC[N+](C)(C)CC1` [Perifosine] + C[C@]1(O)C[C@@H](c2nc(-c3ccc4ccc(-c5ccccc5)nc4c3)c3c(N)nccn32)C1 [OSI906] (partner dose 2 µM) came in with a cell count of 99.3%.

`Cn1sc(=O)n(Cc2ccccc2)c1=O` + Cn1cc(/C=C2\C(=O)Nc3cccnc32)c2ccccc21 [GW441756] (partner dose 2 µM) displayed a cell count of 102%.

Regarding `CCCCCCCCCCCCCCCCCCOP(=O)([O-])OC1CC[N+](C)(C)CC1` [Perifosine] + O=C(O)C(=O)Nc1sc2c(c1C(=O)O)CCNC2 [TCS401] (partner dose 8.33333 µM), the cell count came to 80.9%. As to `CCCCCCCCCCCCCCCCCCOP(=O)([O-])OC1CC[N+](C)(C)CC1` [Perifosine] + NCC(=O)Nc1ccc(-n2nc(C(F)(F)F)cc2-c2ccc3c(ccc4ccccc43)c2)cc1 [OSU03012] (partner dose 5 µM), the cell count was determined as 53%.

For the compound `Cn1sc(=O)n(Cc2ccccc2)c1=O` + CN1CCN(c2ccc3nc(-c4c(N)c5c(F)cccc5[nH]c4=O)[nH]c3c2)CC1 [Dovitinib] (partner dose 0.5 µM), the cell count came to 69.9%.

For the compound `Cn1sc(=O)n(Cc2ccccc2)c1=O` + COC(=O)c1sccc1S(=O)(=O)Nc1ccc(Nc2ccccc2)cc1OC [GSK0660] (partner dose 5 µM), the cell count turned out to be 94.1%. The same measure for `Cn1sc(=O)n(Cc2ccccc2)c1=O` + N#Cc1c(O)c2c(-c3ccc(-c4ccccc4O)cc3)csc2[nH]c1=O [A769662] (partner dose 10 µM): 78.6%; for `C[C@@H](N)c1ccc(C(=O)Nc2ccnc3[nH]ccc23)cc1` + Cc1cc(Nc2cc(N3CCN(C)CC3)nc(/C=C/c3ccccc3)n2)n[nH]1 [ENMD2076] (partner dose 0.2 µM): 82.7%.
